Reference: the supplement of paper PMC11876631
Positions count from the first letter of the chain named. Names and notes keep the numbering of the source. ± gives the standard deviation of the averaged measurements. Laboratory Escherichia coli strains with one amino-acid change in an essential protein, pooled on minimal glucose agar with carbenicillin or gentamicin at twice the control MIC (plus kanamycin and chloramphenicol for the plasmids), 48 h. Fold change of barcode share against drug-free plates; higher = less susceptible. Active = above 20 in both replicates (the paper's putatively resistant). '<' = one read or none on drug, '>' = one read or none on a drug-free plate. Shares are relative, so most strains fall below 1 when a few take over. Listed are strains with at least 15 reads on both drug-free plates, and hits; most hits rest on fewer reference reads. Replicate rank correlation about 0.5. Edits are read from barcodes.

B1: kdsA I112A (protein)
chain: MKQKVVSIGDINVANDLPFVLFGGMNVLESRDLAMRICEHYVTVTQKLGIPYVFKASFDKANRSSIHSYRGPGLEEGMKIFQELKQTFGVKIITDVHEPSQAQPVADVVDVAQLPAFLARQTDLVEAMAKTGAVINVKKPQFVSPGQMGNIVDKFKEGGNEKVILCDRGANFGYDNLVVDMLGFSIMKKVSGNSPVIFDVTHALQCRDPFGAASGGRRAQVAELARAGMAVGLAGLFIEAHPDPEHAKCDGPSALPLAKLEPFLKQMKAIDDLVKGFEELDTSK
B2: ispE L118A (protein)
chain: MRTQWPSPAKLNLFLYITGQRADGYHTLQTLFQFLDYGDTISIELRDDGDIRLLTPVEGVEHEDNLIVRAARLLMKTAADSGRLPTGSGANISIDKRLPMGGGLGGGSSNAATVLVAANHLWQCGLSMDELAEMGLTLGADVPVFVRGHAAFAEGVGEILTPVDPPEKWYLVAHPGVSIPTPVIFKDPELPRNTPKRSIETLLKCEFSNDCEVIARKRFREVDAVLSWLLEYAPSRLTGTGACVFAEFDTESEARQVLEQAPEWLNGFVAKGANLSPLHRAML
B3: ispE L118Q (protein)
chain: B2 chain with A118Q
B4: ispF V151A (protein)
chain: MRIGHGFDVHAFGGEGPIIIGGVRIPYEKGLLAHSDGDVALHALTDALLGAAALGDIGKLFPDTDPAFKGADSRELLREAWRRIQAKGYTLGNVDVTIIAQAPKMLPHIPQMRVFIAEDLGCHMDDVNVKATTTEKLGFTGRGEGIACEAAALLIKATK
B5: ispF L49W (protein)
chain: B4 chain with L49W, A151V
B6: ispF L49Q (protein)
chain: B4 chain with L49Q, A151V
B7: ispF L49A (protein)
chain: B4 chain with L49A, A151V
B8: aroA L92A (protein)
chain: MESLTLQPIARVDGTINLPGSKSVSNRALLLAALAHGKTVLTNLLDSDDVRHMLNALTALGVSYTLSADRTRCEIIGNGGPLHAEGALELFAGNAGTAMRPLAAALCLGSNDIVLTGEPRMKERPIGHLVDALRLGGAKITYLEQENYPPLRLQGGFTGGNVDVDGSVSSQFLTALLMTAPLAPEDTVIRIKGDLVSKPYIDITLNLMKTFGVEIENQHYQQFVVKGGQSYQSPGTYLVEGDASSASYFLAAAAIKGGTVKVTGIGRNSMQGDIRFADVLEKMGATICWGDDYISCTRGELNAIDMDMNHIPDAAMTIATAALFAKGTTTLRNIYNWRVKETDRLFAMATELRKVGAEVEEGHDYIRITPPEKLNFAEIATYNDHRMAMCFSLVALSDTPVTILDPKCTAKTFPDYFEQLARISQAA
B9: ispG V121A (protein)
chain: MHNQAPIQRRKSTRIYVGNVPIGDGAPIAVQSMTNTRTTDVEATVNQIKALERVGADIVRVSVPTMDAAEAFKLIKQQVNVPLVADIHFDYRIALKVAEYGVDCLRINPGNIGNEERIRMAVDCARDKNIPIRIGVNAGSLEKDLQEKYGEPTPQALLESAMRHVDHLDRLNFDQFKVSVKASDVFLAVESYRLLAKQIDQPLHLGITEAGGARSGAVKSAIGLGLLLSEGIGDTLRVSLAADPVEEIKVGFDILKSLRIRSRGINFIACPTCSRQEFDVIGTVNALEQRLEDIITPMDVSIIGCVVNGPGEALVSTLGVTGGNKKSGLYEDGVRKDRLDNNDMIDQLEARIRAKASQLDEARRIDVQQVEK
B10: ispG L224Q (protein)
chain: B9 chain with A121V, L224Q
B11: ispG L224A (protein)
chain: B9 chain with A121V, L224A
B12: ispG L227Q (protein)
chain: B9 chain with A121V, L227Q
B13: ispG L227D (protein)
chain: B9 chain with A121V, L227D
B14: ispG L227A (protein)
chain: B9 chain with A121V, L227A
B15: ispG L227P (protein)
chain: B9 chain with A121V, L227P

Target: Escherichia coli (laboratory strain)
Test: barcode share on antibiotic plates over drug-free plates; higher = less susceptible
Method: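 A pool of E. coli strains, each edited to carry one amino-acid change in an essential protein, was grown for 48 h on minimal glucose agar with or without antibiotic; strain barcodes were sequenced; mean of two replicates.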

[1] = antibiotic: carbenicillin, 2× MIC (3.1 µg/mL)
[2] = antibiotic: gentamicin, 2× MIC (MIC 0.45 µg/mL)

Protein | fold change of barcode share [1] | fold change of barcode share [2]
B1 | 0.322 ± 0.019 | –
B2 | 0.306 ± 0.0093 | 0.00724 ± 0.0017
B3 | 0.345 ± 0.15 | 17 ± 19
B4 | 0.45 ± 0.052 | 0.00336 ± 0.0026
B5 | 3.63 ± 4.2 | 0.145 ± 0.18
B6 | 0.387 ± 0.055 | 0.0249 ± 0.0069
B7 | 0.345 ± 0.11 | 0.00812 ± 0.0052
B8 | 0.536 ± 0.22 | < 0.012
B9 | 0.323 ± 0.044 | < 0.00459
B10 | 0.2538 ± 0.0021 | 0.312 ± 0.06
B11 | 0.478 ± 0.31 | 0.00463 ± 0.00031
B12 | 0.523 ± 0.2 | 0.0171 ± 0.015
B13 | 0.258 ± 0.015 | < 0.0102
B14 | 0.255 ± 0.023 | 0.0249 ± 0.033
B15 | 0.538 ± 0.23 | 0.0549 ± 0.073
